Experimental data: article PMC9574860, “Chemical Toolkit for PARK7: Potent, Selective, and High-Throughput” (Journal of Medicinal Chemistry, 2022)
Screen size: about 7,900 compounds; about 400 (5.1%) showed an effect of 50% or more. The list shows a part of the results.

Each compound was assayed against Parkinson's disease protein 7 (PARK7/DJ1) (human, UniProt Q99497) (assay: primary screen, percent inhibition; read as competition with a fluorescent probe by fluorescence polarization; higher = more effect of the substance). Details: 100 µM.
Procedure, shortened: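 Covalent fragments at 100 μM final were incubated 2 h with 0.2 μM PARK7, then 20 nM probe JYQ-107 added for a further 2 h. Fluorescence polarization read at 480/520 nm; relative FP loss versus reference controls gave remaining enzyme activity.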

Chain of Parkinson's disease protein 7 (PARK7/DJ1) (Q99497 whole entry, looked up, the tested form may be a part): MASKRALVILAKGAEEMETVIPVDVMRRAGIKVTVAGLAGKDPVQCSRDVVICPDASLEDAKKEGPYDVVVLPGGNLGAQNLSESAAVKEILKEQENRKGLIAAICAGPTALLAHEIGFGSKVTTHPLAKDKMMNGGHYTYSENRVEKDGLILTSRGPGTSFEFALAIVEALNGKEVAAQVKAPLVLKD

| SMILES | Inhibition % [%] |
| --- | --- |
| C=CC(=O)Nc1ccnn1C | 7.37 |
| Cc1cnccc1NS(=O)(=O)c1ccc(S(=O)(=O)F)cc1 | 18.9 |
| C=CC(=O)N1CCCC(c2n[nH]c(=O)o2)C1 (stereo not shown) | 1.49 |
| O=S(=O)(F)c1ccc2[nH]ncc2c1 | 53 |
| C=CC(=O)N1CCOC(C(F)F)CC1 (stereo not shown) | 4.09 |
| N#Cc1c(N2CCCC(CC(N)=O)C2)nc2ccccn12 (stereo not shown) | 2.1 |
| C=CC(=O)NCc1nccc2c1CCCC2 | 5.36 |
| C=CC(=O)N1CCC(c2cccnc2)CC1 | 11.5 |
| COc1cccc(Cn2cnc(C#N)n2)c1 | 4.76 |
| C=CC(=O)NCC1CCN(c2ccccc2)CC1 | 3.72 |
| C=CC(=O)Nc1cccc2c1CCO2 | 3.25 |
| O=C1SCCN1CN1CC=C(c2ccccc2)CC1 | 2.16 |
| C=CC(=O)Nc1cc(F)cc(N2CCOCC2)c1 | 6.03 |
| COc1ccc(N2CC(N)C2=O)cc1.Cl (stereo not shown) | -4.76 |
| Cc1cnc2ccccc2c1S(=O)(=O)F | 95.2 |
| COc1ccc(Cl)c(S(=O)(=O)OCC(F)(F)F)c1 | 7.55 |
| C=CC(=O)NCC1CCCCS1 (stereo not shown) | 8.11 |
| O=C(CCl)NC(=O)NCCc1cccs1 | 11.2 |
| Cl.O=S(=O)(F)CC1CNCCO1 (stereo not shown) | 11 |
| CC(=O)Nc1ccc(C=C(C#N)C(N)=O)cc1 | 6.27 |
| COc1ccccc1C(C)NC(=O)CCl (stereo not shown) | 10.5 |
| C=CC(=O)N[C@@H]1CCCN(S(=O)(=O)C2CC2)C1 | 2.73 |
| C=CC(=O)N1CCN(S(C)(=O)=O)CC1(C)C | 4.46 |
| Cc1cc(C)c(C#N)c(S)n1 | 4.97 |
| CCn1ncnc1CN(C#N)c1ccc(F)cc1 | 6.79 |
| O=C(CCl)Nc1nc(C2CC2)no1 | 31 |
| Cc1ccc(Nc2oc(C)nc2C#N)cc1 | 7.87 |

| SMILES | Inhibition % [%] |
| --- | --- |
| COC(=O)C=C1Nc2cc(C)ccc2OC1=O | 4.25 |
| O=C(Nc1ccc(CCO)cc1)c1cccnc1S | 7.16 |
| Cc1ccc(C=C(C#N)C(=O)NC(C)C)s1 | 3.92 |
| CN(C(=O)c1ccc(B2OC(C)(C)C(C)(C)O2)c(Cl)c1)c1ccccc1 | 4.96 |
| C=CC(=O)N1CCC(C(F)(F)F)C2(CCC2)C1 (stereo not shown) | 8.28 |
| CCc1cc(C(=O)NNC(=O)CCl)sc1C | 9.95 |
| C=CC(=O)NCc1nnc(-c2ccc(Cl)cc2)o1 | -0.196 |
| CNC1CCCN(C(=O)C=Cc2ccc(Cl)cc2)C1 (stereo not shown) | 11.8 |
| CSC1(C(=O)NC2CN(c3ccccc3)C2=O)CC1 (stereo not shown) | 2.01 |
| Cc1cccc(N(Cc2ccccc2)C(=O)CCl)c1 | 9.42 |
| CCc1cccc(N(C#N)CC(=O)NC2CCOCC2)c1 | 2.19 |
| Cl.O=C(CCl)c1c[nH]c2ncccc12 | 10.6 |
| N#Cc1ncn(CC(=O)Nc2cc(Cl)ccc2F)n1 | 3.72 |
| C=CC(=O)N1CCOC(c2cccc(Cl)c2)C1 (stereo not shown) | 9.66 |
| CC1(C)OB(c2cnc(N3CCC(=O)CC3)nc2)OC1(C)C | 6.29 |
| C=CC(=O)N1CCC(Cc2ccnn2C)CC1 | 8.86 |
| CCc1ccccc1N1C(=O)CN=C1S | 4.97 |
| CC(C)(C)C(CO)Nc1ccc(C(F)(F)F)c(C#N)n1 (stereo not shown) | 12.1 |
| Cc1ccc(N(C)C(=O)n2nc(C)cc2C)cc1 | 2.51 |
| O=C(CCCl)Nc1cccc(C(F)(F)F)c1 | 5.59 |
| O=C(CCC1CCCC1)NC1C=CS(=O)(=O)C1 (stereo not shown) | 6.99 |
| CC(N)C1CCCCN1C(=O)C=Cc1cncc(F)c1 (stereo not shown) | -0.26 |
| O=C(CCl)Nc1ccc(F)cc1Cl | 13.8 |
| Cn1c(C#N)c2ccccn2c1=O | 6.65 |
| N#CC(=Cc1ccc(Cl)cc1)C(=O)Nc1ccncc1 | 2.9 |
| Cc1nc2ccccc2nc1SC1CCOC1=O (stereo not shown) | 70.3 |
| C=C(C)Cn1c(C#N)nc(C)c1C | 2.82 |

| SMILES | Inhibition % [%] |
| --- | --- |
| C=CC(=O)Nc1cnn(CC2CCCO2)c1 (stereo not shown) | 9.71 |
| Cc1nc(-c2ccc(C)c(NC(=O)CCl)c2)n[nH]1 | 4.91 |
| O=C(O)c1cccc(S(=O)(=O)F)c1 | 95.1 |
| O=C(CCl)NNC(=O)C1(c2ccc(Cl)cc2)CC1 | 10.4 |
| N#Cc1ncn(CC(=O)NC2CCCc3ccccc32)n1 (stereo not shown) | 4.52 |
| O=C1SCCN1CC(=O)N1CCCc2c(F)cc(F)cc21 | 13.6 |
| C=CC(=O)N1CCC(c2noc(C3CC3)n2)CC1 | 2.86 |
| Cc1ncc(C=CC(=O)N2CCC(CN)C2)s1 (stereo not shown) | 12.9 |
| C=CC(=O)N1CCN(Cc2cc(C)no2)CC1 | 4.28 |
| Cn1cc(CCCNc2ccc(Cl)c(C#N)n2)cn1 | 21.8 |
| Cc1nn(C)c(C)c1C=CC(=O)N1CCC(C)CC1 | 14.3 |
| Cc1cc(C(=O)CCl)c(F)cc1F | 5.96 |
| C=CC(=O)N1CCN(C2CC2)C(C(N)=O)C1 (stereo not shown) | 4.01 |
| COc1cc(OC)c(C(=O)CCl)c(OC)c1 | 5.2 |
| C=CC(=O)N1Cc2ccccc2CC1CC (stereo not shown) | -4.38 |
| CC1CC1c1ccc(C=CC(=O)N2CCC(O)CC2)o1 (stereo not shown) | 2.77 |
| CN1CCN(c2oc(-c3ccc(F)cc3)nc2C#N)CC1 | 5.44 |
| OC1(CC2CO2)CCCC1 (stereo not shown) | 15.9 |
| CC1(C)C(=O)NC1C1CC1 (stereo not shown) | -4.69 |
| C=CC(=O)N1CCCc2cc(S(C)(=O)=O)ccc21 | -0.0694 |
| COc1ccc(C(C)C)cc1S(=O)(=O)n1cnc(C)c1 | 8.19 |
| CS(=O)(=O)OCC1(C#N)CCC1 | -0.83 |
| Cc1ccc(C=CC(=O)N2CCOCC2C(=O)O)o1 (stereo not shown) | 10.4 |
| CC(NC(=O)CCl)c1ccccc1Br (stereo not shown) | 5.44 |
| C=CC(=O)N1CCN(Cc2cc3ccccc3o2)CC1 | 10.5 |
